# From the supplement of paper PMC8728848
# The list shows a part of the results.
# B1: SpnanA (Streptococcus pneumoniae), P62575 (protein)
# chain: MVIEKEDVETNASNGQRVDLSSELDKLKKLENATVHMEFKPDAKAPAFYNLFSVSSATKKDEYFTMAVYNNTATLEGRGSDGKQFYNNYNDAPLKVKPGQWNSVTFTVEKPTAELPKGRVRLYVNGVLSRTSLRSGNFIKDMPDVTHVQIGATKRANNTVWGSNLQIRNLTVYNRALTPEEVQKRS
# Legend:
# Test in all cases: glycan array binding signal (z-score within array); higher = stronger binding
# Conditions in all cases: glycan notation: IUPAC condensed, linker removed
# [1] = molecular target: GalNAc(a1-3)GalNAc(a1-3)Gal(a1-4)Gal(b1-4)GlcNAc
# Procedure, shortened: (§1)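 The binding signal is a Z-score computed within each array. Data were drawn from 3228 arrays in the Consortium for Functional Glycomics database, restricted to those with a known protein sequence. Scores were averaged over arrays of the same protein sequence at different concentrations or buffers, and over linkers, and negative values can be taken as non-binding.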
# [2] = molecular target: GalNAc(a1-3)GalNAc(b1-3)Gal(a1-4)Gal(b1-4)Glc
# Procedure, shortened: as §1
# [3] = molecular target: GalNAc(a1-3)GalNAc(b1-3)Gal(a1-4)Gal(b1-4)GlcNAc
# Procedure, shortened: as §1
# GalNAc(b1-3)Gal = molecular target: GalNAc(b1-3)Gal
# Procedure, shortened: as §1
# [4] = molecular target: GalNAc(b1-3)Gal(a1-4)Gal(b1-4)GlcNAc
# Procedure, shortened: as §1
# [5] = molecular target: GalNAc(b1-3)Gal(a1-4)Gal(b1-4)GlcNAc(b1-3)Gal(b1-4)Glc
# Procedure, shortened: as §1
# [6] = molecular target: GalNAc(b1-3)Gal(a1-6)Gal(b1-4)Glc
# Procedure, shortened: as §1
# GalNAc(b1-3)GalNAc = molecular target: GalNAc(b1-3)GalNAc
# Procedure, shortened: as §1
# GalNAc(b1-4)Gal(b1-4)Glc = molecular target: GalNAc(b1-4)Gal(b1-4)Glc
# Procedure, shortened: as §1
# GalNAc(b1-4)GlcNAc = molecular target: GalNAc(b1-4)GlcNAc
# Procedure, shortened: as §1
# [7] = molecular target: GalNAc(b1-4)GlcNAc(b1-2)Man(a1-3)[GalNAc(b1-4)GlcNAc(b1-2)Man(a1-6)]Man(b1-4)GlcNAc(b1-4)GlcNAc
# Procedure, shortened: as §1
# GalNAc(b1-4)GlcNAc6S = molecular target: GalNAc(b1-4)GlcNAc6S
# Procedure, shortened: as §1
# GalNAc(b1-6)GalNAc = molecular target: GalNAc(b1-6)GalNAc
# Procedure, shortened: as §1
# GalNAc3S(b1-4)GlcNAc = molecular target: GalNAc3S(b1-4)GlcNAc
# Procedure, shortened: as §1
# GalNAc3S(b1-4)GlcNAc3S = molecular target: GalNAc3S(b1-4)GlcNAc3S
# Procedure, shortened: as §1
# GalNAc4S6S(b1-4)GlcNAc = molecular target: GalNAc4S6S(b1-4)GlcNAc
# Procedure, shortened: as §1
# GalNAc6S(b1-4)GlcNAc = molecular target: GalNAc6S(b1-4)GlcNAc
# Procedure, shortened: as §1
# Glc(a1-4)Glc = molecular target: Glc(a1-4)Glc
# Procedure, shortened: as §1
# [8] = molecular target: Glc(a1-4)Glc(a1-4)Glc(a1-4)Glc
# Procedure, shortened: as §1
# Glc(a1-6)Glc(a1-6)Glc = molecular target: Glc(a1-6)Glc(a1-6)Glc
# Procedure, shortened: as §1
# [9] = molecular target: Glc(a1-6)Glc(a1-6)Glc(a1-6)Glc
# Procedure, shortened: as §1
# Glc(b1-4)Glc = molecular target: Glc(b1-4)Glc
# Procedure, shortened: as §1
# Glc(b1-6)Glc = molecular target: Glc(b1-6)Glc
# Procedure, shortened: as §1
# GlcA(b1-3)Gal = molecular target: GlcA(b1-3)Gal
# Procedure, shortened: as §1
# GlcA(b1-3)GlcNAc = molecular target: GlcA(b1-3)GlcNAc
# Procedure, shortened: as §1
# GlcA(b1-6)Gal = molecular target: GlcA(b1-6)Gal
# Procedure, shortened: as §1
# [10] = molecular target: GlcNAc(a1-3)Gal(b1-4)GlcNAc
# Procedure, shortened: as §1
# [11] = molecular target: GlcNAc(a1-4)Gal(b1-3)GlcNAc
# Procedure, shortened: as §1
# [12] = molecular target: GlcNAc(a1-4)Gal(b1-4)GalNAc
# Procedure, shortened: as §1
# [13] = molecular target: GlcNAc(a1-4)Gal(b1-4)GlcNAc
# Procedure, shortened: as §1
# [14] = molecular target: GlcNAc(a1-4)Gal(b1-4)GlcNAc(b1-3)Gal(b1-4)Glc
# Procedure, shortened: as §1
# [15] = molecular target: GlcNAc(a1-4)Gal(b1-4)GlcNAc(b1-3)Gal(b1-4)GlcNAc
# Procedure, shortened: as §1
# [16] = molecular target: GlcNAc(a1-4)Gal(b1-4)GlcNAc(b1-3)Gal(b1-4)GlcNAc(b1-3)Gal(b1-4)GlcNAc
# Procedure, shortened: as §1
# [17] = molecular target: GlcNAc(a1-4)Gal(b1-4)GlcNAc(b1-3)Gal(b1-4)[Fuc(a1-3)]GlcNAc(b1-3)Gal(b1-4)[Fuc(a1-3)]GlcNAc
# Procedure, shortened: as §1
# [18] = molecular target: GlcNAc(a1-6)Gal(b1-4)GlcNAc
# Procedure, shortened: as §1
# [19] = molecular target: GlcNAc(b1-2)Gal(b1-3)GalNAc
# Procedure, shortened: as §1
# [20] = molecular target: GlcNAc(b1-2)Man(a1-3)[GlcNAc(b1-2)Man(a1-6)]Man(b1-4)GlcNAc(b1-4)GlcNAc
# Procedure, shortened: as §1
# [21] = molecular target: GlcNAc(b1-2)Man(a1-3)[GlcNAc(b1-2)Man(a1-6)]Man(b1-4)GlcNAc(b1-4)[Fuc(a1-6)]GlcNAc
# Procedure, shortened: as §1
# [22] = molecular target: GlcNAc(b1-2)Man(a1-3)[GlcNAc(b1-4)][GlcNAc(b1-2)Man(a1-6)]Man(b1-4)GlcNAc(b1-4)GlcNAc
# Procedure, shortened: as §1
# [23] = molecular target: GlcNAc(b1-2)[GlcNAc(b1-4)]Man(a1-3)[GlcNAc(b1-2)Man(a1-6)]Man(b1-4)GlcNAc(b1-4)GlcNAc
# Procedure, shortened: as §1
# [24] = molecular target: GlcNAc(b1-2)[GlcNAc(b1-4)]Man(a1-3)[GlcNAc(b1-4)][GlcNAc(b1-2)Man(a1-6)]Man(b1-4)GlcNAc(b1-4)GlcNAc
# Procedure, shortened: as §1
# [25] = molecular target: GlcNAc(b1-2)[GlcNAc(b1-4)]Man(a1-3)[GlcNAc(b1-4)][GlcNAc(b1-2)[GlcNAc(b1-6)]Man(a1-6)]Man(b1-4)GlcNAc(b1-4)GlcNAc
# Procedure, shortened: as §1
# [26] = molecular target: GlcNAc(b1-2)[GlcNAc(b1-4)]Man(a1-3)[GlcNAc(b1-4)][GlcNAc(b1-2)[GlcNAc(b1-6)]Man(a1-6)]Man(b1-4)GlcNAc(b1-4)[Fuc(a1-6)]GlcNAc
# Procedure, shortened: as §1
# [27] = molecular target: GlcNAc(b1-2)[GlcNAc(b1-6)]Man(a1-6)[GlcNAc(b1-2)Man(a1-3)]Man(b1-4)GlcNAc(b1-4)GlcNAc
# Procedure, shortened: as §1
# [28] = molecular target: GlcNAc(b1-2)[GlcNAc(b1-6)]Man(a1-6)[GlcNAc(b1-2)Man(a1-3)]Man(b1-4)GlcNAc(b1-4)[Fuc(a1-6)]GlcNAc
# Procedure, shortened: as §1
binder,measurement,setting,value
B1,glycan array binding signal (z-score),[1],-0.107
same,glycan array binding signal (z-score),[2],-0.252
same,glycan array binding signal (z-score),[3],-0.33
same,glycan array binding signal (z-score),GalNAc(b1-3)Gal,-0.257
same,glycan array binding signal (z-score),[4],-0.114
same,glycan array binding signal (z-score),[5],-0.288
same,glycan array binding signal (z-score),[6],-0.324
same,glycan array binding signal (z-score),GalNAc(b1-3)GalNAc,-0.139
same,glycan array binding signal (z-score),GalNAc(b1-4)Gal(b1-4)Glc,-0.198
same,glycan array binding signal (z-score),GalNAc(b1-4)GlcNAc,0.178
same,glycan array binding signal (z-score),[7],-0.214
same,glycan array binding signal (z-score),GalNAc(b1-4)GlcNAc6S,-0.095
same,glycan array binding signal (z-score),GalNAc(b1-6)GalNAc,-0.298
same,glycan array binding signal (z-score),GalNAc3S(b1-4)GlcNAc,-0.342
same,glycan array binding signal (z-score),GalNAc3S(b1-4)GlcNAc3S,-0.288
same,glycan array binding signal (z-score),GalNAc4S6S(b1-4)GlcNAc,-0.292
same,glycan array binding signal (z-score),GalNAc6S(b1-4)GlcNAc,-0.265
same,glycan array binding signal (z-score),Glc(a1-4)Glc,-0.28
same,glycan array binding signal (z-score),[8],-0.069
same,glycan array binding signal (z-score),Glc(a1-6)Glc(a1-6)Glc,-0.303
same,glycan array binding signal (z-score),[9],0.035
same,glycan array binding signal (z-score),Glc(b1-4)Glc,-0.21
same,glycan array binding signal (z-score),Glc(b1-6)Glc,-0.304
same,glycan array binding signal (z-score),GlcA(b1-3)Gal,-0.272
same,glycan array binding signal (z-score),GlcA(b1-3)GlcNAc,6.22
same,glycan array binding signal (z-score),GlcA(b1-6)Gal,-0.213
same,glycan array binding signal (z-score),[10],-0.274
same,glycan array binding signal (z-score),[11],-0.318
same,glycan array binding signal (z-score),[12],-0.197
same,glycan array binding signal (z-score),[13],-0.123
same,glycan array binding signal (z-score),[14],-0.293
same,glycan array binding signal (z-score),[15],-0.204
same,glycan array binding signal (z-score),[16],-0.207
same,glycan array binding signal (z-score),[17],0.295
same,glycan array binding signal (z-score),[18],-0.33
same,glycan array binding signal (z-score),[19],-0.315
same,glycan array binding signal (z-score),[20],-0.229
same,glycan array binding signal (z-score),[21],0.395
same,glycan array binding signal (z-score),[22],-0.237
same,glycan array binding signal (z-score),[23],-0.266
same,glycan array binding signal (z-score),[24],-0.23
same,glycan array binding signal (z-score),[25],-0.264
same,glycan array binding signal (z-score),[26],-0.363
same,glycan array binding signal (z-score),[27],-0.227
same,glycan array binding signal (z-score),[28],-0.34
